The target in the test is T1, human C3b (human, UniProt P01024 23-667; P01024 part only).
T1 construct: Bought human C3b (Calbiochem), coated on microtiter wells; also called complement protein C3b
Description: C3b-properdin binding ELISA: human C3b coated, properdin 1 nM, C3b-bound properdin detected with mouse anti-properdin P#2; wells without C3b as background.

Sequence of human C3b (P01024 23-667 limits assumed, chain 1 of 2): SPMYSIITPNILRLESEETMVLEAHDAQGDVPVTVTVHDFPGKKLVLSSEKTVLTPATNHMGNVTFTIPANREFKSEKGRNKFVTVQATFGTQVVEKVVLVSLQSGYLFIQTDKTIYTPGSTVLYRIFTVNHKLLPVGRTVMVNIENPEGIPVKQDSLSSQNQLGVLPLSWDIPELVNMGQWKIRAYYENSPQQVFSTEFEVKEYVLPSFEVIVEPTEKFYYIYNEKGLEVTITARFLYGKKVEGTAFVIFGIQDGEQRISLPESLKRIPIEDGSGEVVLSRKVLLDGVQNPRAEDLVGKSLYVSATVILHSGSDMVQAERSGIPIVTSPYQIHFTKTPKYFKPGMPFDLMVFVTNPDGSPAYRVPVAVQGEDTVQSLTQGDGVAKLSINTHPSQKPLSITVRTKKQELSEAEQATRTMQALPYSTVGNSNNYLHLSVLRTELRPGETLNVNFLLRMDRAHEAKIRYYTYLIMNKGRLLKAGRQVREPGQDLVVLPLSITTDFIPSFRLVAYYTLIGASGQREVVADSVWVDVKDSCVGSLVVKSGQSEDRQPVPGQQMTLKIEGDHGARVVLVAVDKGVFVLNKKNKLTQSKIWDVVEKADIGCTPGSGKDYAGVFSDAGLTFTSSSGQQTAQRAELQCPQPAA
Sequence of human C3b (P01024 749-1663 limits assumed, chain 2 of 2): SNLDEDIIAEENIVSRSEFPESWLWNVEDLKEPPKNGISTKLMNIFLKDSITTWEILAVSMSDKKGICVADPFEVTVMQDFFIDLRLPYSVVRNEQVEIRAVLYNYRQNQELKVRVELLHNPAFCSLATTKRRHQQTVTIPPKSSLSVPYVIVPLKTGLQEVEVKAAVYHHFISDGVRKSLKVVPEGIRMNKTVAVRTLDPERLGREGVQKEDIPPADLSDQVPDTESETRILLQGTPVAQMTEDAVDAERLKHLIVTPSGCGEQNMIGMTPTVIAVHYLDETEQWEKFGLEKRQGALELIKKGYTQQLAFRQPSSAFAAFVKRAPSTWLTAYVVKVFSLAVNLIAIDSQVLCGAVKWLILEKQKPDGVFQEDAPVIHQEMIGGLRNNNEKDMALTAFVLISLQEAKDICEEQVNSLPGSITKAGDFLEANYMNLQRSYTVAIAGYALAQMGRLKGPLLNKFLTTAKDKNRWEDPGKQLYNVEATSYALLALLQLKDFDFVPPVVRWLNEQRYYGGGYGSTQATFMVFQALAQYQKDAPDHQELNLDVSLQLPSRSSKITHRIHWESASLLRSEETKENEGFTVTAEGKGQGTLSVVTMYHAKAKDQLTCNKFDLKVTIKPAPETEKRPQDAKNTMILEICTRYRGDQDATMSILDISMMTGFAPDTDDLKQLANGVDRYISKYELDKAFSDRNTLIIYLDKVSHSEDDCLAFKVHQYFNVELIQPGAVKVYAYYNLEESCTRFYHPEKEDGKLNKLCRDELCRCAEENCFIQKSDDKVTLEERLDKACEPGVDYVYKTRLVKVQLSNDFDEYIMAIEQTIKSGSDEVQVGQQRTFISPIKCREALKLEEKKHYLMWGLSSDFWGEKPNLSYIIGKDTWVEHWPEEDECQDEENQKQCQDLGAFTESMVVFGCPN

B1: human properdin (other, UniProt P27918 28-469, looked up)
chain: DPVLCFTQYEESSGKCKGLLGGGVSVEDCCLNTAFAYQKRSGGLCQPCRSPRWSLWSTWAPCSVTCSEGSQLRYRRCVGWNGQCSGKVAPGTLEWQLQACEDQQCCPEMGGWSGWGPWEPCSVTCSKGTRTRRRACNHPAPKCGGHCPGQAQESEACDTQQVCPTHGAWATWGPWTPCSASCHGGPHEPKETRSRKCSAPEPSQKPPGKPCPGLAYEQRRCTGLPPCPVAGGWGPWGPVSPCPVTCGLGQTMEQRTCNHPVPQHGGPFCAGDATRTHICNTAVPCPVDGEWDSWGEWSPCIRRNMKSISCQEIPGQQSRGRTCRGRKFDGHRCAGQQQDIRHCYSIQHCPLKGSWSEWSTWGLCMPPCGPNPTRARQRLCTPLLPKYPPTVSMVEGQGEKNVTFWGRPLPRCEELQGQKLVVEEKRPCLHVPACKDPEEEEL
Consider B1, for which the binding result is “binds”.

The values above are taken from patent US20060093599A1 (Amgen, published 2006).
